Reference: PubChem BioAssay AID504832 (National Center for Advancing Translational Sciences (NCATS), 2011)
In all, about 310,000 compounds went through this assay and about 18,000 (5.8%) were called active. Inconclusive means that the source gave no clear call. Such entries were picked first, then a sample of the others. Calls follow the shape of the dose curve; as a rule, active = well fitted inhibition curve with a large enough effect; inconclusive = small, poorly fitted or top-dose-only effect, or another doubt; inactive = no such curve, though single readings can be large or run the other way. No potency is given beside an inconclusive call; the fits are too rough.

Experiment: Primary qHTS for delayed death inhibitors of the malarial parasite plastid, 48 hour incubation
Details: P. falciparum luciferase growth in erythrocytes; series mostly up to 28.7 µM; activity change, negative = inhibition: at the top concentration
Procedure, shortened: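 In quantitative HTS format, infected erythrocytes bearing luciferase-reporter parasites were treated for a single generation at 37 C. Luminescence after adding detection reagent served as the growth measure.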
% is scaled to controls: 0 for no effect and ±100 for the full control effect; potency is read from the fitted curve at half-maximal effect; tags tell the direction and shape of the fitted curve.

Question: Which Potency does the source give for `Cc1ccc(-c2cc(C(F)F)n3ncc(C(=O)N4CCCCC4c4cccnc4)c3n2)cc1` (stereo not given) here?
Answer: active: 1.65 µM

Question: With `O=c1oc2ccc(Cl)cc2nc1/C=C(\O)c1ccco1` as the molecule, how does the Potency read?
Answer: inconclusive [inhibitor, single point]

Question: Which “activity change, negative = inhibition” value does the source give for `Cc1ccc(C2CC(c3cccc(Br)c3)Nc3nnnn32)cc1` (stereo not given) here?
Answer: inactive: -4.05%

Question: With `O=C(CCn1c(=O)[nH]c2ccsc2c1=O)NCc1ccc(F)cc1` as the molecule, how does the Potency read?
Answer: inconclusive [inhibitor, partial curve, poor fit]

Question: Which “activity change, negative = inhibition” value does the source give for `COc1ccccc1CNC(=O)Cc1ccc(OC)c(OC)c1` here?
Answer: inactive: 9.42%

Question: For `CC1CCc2c(C(=O)NCc3cccnc3)csc2C1` (stereo not given), which “activity change, negative = inhibition” value is on record?
Answer: inactive: 28.1%

Question: With `CCC(C)COC(=O)C(C#N)c1nc2ccccc2nc1N1CCCCC1` (stereo not given) as the molecule, how does the Potency read?
Answer: inconclusive [inhibitor, single point]

Question: With `COc1cc(CN(C)Cc2cc(=O)oc3cc(C)c(Cl)cc23)ccc1OC(F)F` as the molecule, how does the Potency read?
Answer: inconclusive [inhibitor, single point]

Question: For `COCCNc1nc(-c2ccccc2)nc2c1oc1ccccc12`, which Potency is on record?
Answer: inconclusive [inhibitor, partial curve, poor fit]

Question: Which Potency does the source give for `COc1ccc(NC(=O)NNC(=O)c2cc(C3CC3)nc3ccccc23)c(OC)c1` here?
Answer: inconclusive [inhibitor, partial curve, poor fit]

Question: Which Potency does the source give for `ClCc1cc2ccccc2nc1Cl` here?
Answer: inconclusive [inhibitor, single point]

Question: With `CCc1ccc(C2=Nn3c(nnc3-c3cccs3)SC2)cc1` as the molecule, how does the Potency read?
Answer: active: 2.08 µM

Question: For `CCN(CC(=O)Nc1c(F)cccc1F)C(=O)CCc1nc2cc(S(=O)(=O)N(C)C)ccc2n1CC`, which Potency is on record?
Answer: inconclusive [inhibitor, partial curve, poor fit]

Question: With `CNC1=C(N(C(C)=O)c2ccc(Br)cc2)C(=O)c2ccccc2C1=O` as the molecule, how does the Potency read?
Answer: active: 0.0415 µM

Question: For `O=C(NCCC1=CCCCC1)C1CCN(c2nnc(-n3cccc3)s2)CC1`, which Potency is on record?
Answer: inconclusive [inhibitor, partial curve, poor fit]

Question: With `Cc1ccc(S(=O)(=O)NCC(=O)N2CCN(c3ccc(F)cc3)CC2)cc1` as the molecule, how does the “activity change, negative = inhibition” value read?
Answer: inactive: -5.12%

Question: With `C=CCc1cccc(CNc2nc3ccccc3n2CC)c1O` as the molecule, how does the Potency read?
Answer: active: 14.7 µM

Question: Which Potency does the source give for `Clc1cccc(Cl)c1CNc1ccc(N2CCCC2)cc1` here?
Answer: inconclusive [inhibitor, partial curve, poor fit]

Question: Which Potency does the source give for `CCC(C)N1CCN(C(=O)C2CCN(S(=O)(=O)c3c(C)noc3/C=C/c3ccco3)CC2)CC1` (stereo not given) here?
Answer: inconclusive [inhibitor, partial curve, poor fit]

Question: For `CC(=O)c1ccc(-n2nnnc2SCC(=O)N2CCN(C(=O)c3ccco3)CC2)cc1`, which “activity change, negative = inhibition” value is on record?
Answer: inactive: -23.9%

Question: With `COc1ccc(NC(=O)c2ccc(Br)c(S(=O)(=O)N3CCOCC3)c2)cc1` as the molecule, how does the Potency read?
Answer: inconclusive [inhibitor, full curve, poor fit]

Question: With `Cc1cccc(N2CN(Cc3ccco3)CNC2=S)c1` as the molecule, how does the “activity change, negative = inhibition” value read?
Answer: inactive: 8.62%

Question: For `COc1cc(C(=O)Nc2ccc(NC(=O)c3ccccc3Cl)nc2)cc(OC)c1OC`, which Potency is on record?
Answer: active: 9.28 µM

Question: Which Potency does the source give for `CC1CC(C)CN(CCCNC(=O)c2ccc(CNS(=O)(=O)c3ccc(F)cc3)cc2)C1` (stereo not given) here?
Answer: inconclusive [inhibitor, partial curve, poor fit]

Question: With `COc1cc(CC(=O)Nc2nccs2)cc(OC)c1OC` as the molecule, how does the “activity change, negative = inhibition” value read?
Answer: inactive: 6.4%

Question: For `CCOc1ccc(OCCCCn2cnc3ccccc3c2=O)cc1`, which “activity change, negative = inhibition” value is on record?
Answer: inactive: 0%

Question: Which Potency does the source give for `O=C(NCCC1CCCCN1S(=O)(=O)c1ccc(F)cc1)C(=O)NC1CC1` (stereo not given) here?
Answer: inconclusive [inhibitor, single point]

Question: With `COc1cccc(NC(=O)COc2ccc(C(=S)N3CCN(C)CC3)cc2OC)c1` as the molecule, how does the Potency read?
Answer: inconclusive [inhibitor, single point]

Question: With `Cc1cc(OCC(=O)OCC(=O)c2ccc[nH]2)ccc1Cl` as the molecule, how does the “activity change, negative = inhibition” value read?
Answer: inactive: -2.24%

Question: For `COc1cccc(NC(=S)N(CCc2nc3cc(C)c(C)cc3[nH]2)Cc2cccnc2)c1`, which Potency is on record?
Answer: inconclusive [inhibitor, partial curve, poor fit]

Question: With `CC#CCCC(=O)N1C=Cc2ccccc2C1C#N` (stereo not given) as the molecule, how does the Potency read?
Answer: active: 2.33 µM

Question: For `COc1cccc(-c2nn(C)c3sc(C(=O)N4CCN(c5ccccc5)CC4)cc23)c1`, which Potency is on record?
Answer: inconclusive [inhibitor, partial curve, poor fit]

Question: Which “activity change, negative = inhibition” value does the source give for `CCCn1nc(Oc2nc(N(C)C)nc(N(C)C)n2)ccc1=O` here?
Answer: inactive: 33.6%

Question: With `COc1ccccc1Nc1cc(C)nc(Nc2ccccc2OC)n1` as the molecule, how does the Potency read?
Answer: inconclusive [inhibitor, single point]

Question: With `COc1ccc(N(CC(=O)NC(C)c2ccccc2)S(=O)(=O)c2ccc(C)cc2)cc1` (stereo not given) as the molecule, how does the “activity change, negative = inhibition” value read?
Answer: inactive: -6.67%

Question: For `[N-]=[N+]=NCc1cn2cccnc2n1`, which “activity change, negative = inhibition” value is on record?
Answer: inactive: 32.3%

Question: Which Potency does the source give for `COc1cc2c(cc1N/C=C(\C#N)c1nc(-c3ccc(F)cc3)cs1)oc1ccccc12` here?
Answer: active: 9.28 µM

Question: For `CC1(C)C=C2[C@H]3CC[C@@H]4[C@@]5(C)CCC(=O)C(C)(C)[C@@H]5CC[C@@]4(C)[C@]3(C)CC[C@@]2(C(=O)O)CC1`, which Potency is on record?
Answer: inconclusive [inhibitor, partial curve]

Question: Which Potency does the source give for `COc1cc2c(cc1OC)C(c1cc3cccc(C)c3[nH]c1=O)N(C(=O)c1ccco1)CC2` (stereo not given) here?
Answer: active: 11.7 µM

Question: For `Cc1cccc(NC(=O)CSc2nc3ccccc3nc2N2CCCC2)c1`, which Potency is on record?
Answer: inconclusive [inhibitor, single point]

Question: Which Potency does the source give for `Cn1c(SCC(=O)c2ccc3c(c2)OCO3)nnc1C1COc2ccccc2O1` (stereo not given) here?
Answer: inconclusive [inhibitor, partial curve, poor fit]

Question: For `O=C(Cc1ccc(Cl)cc1)NCCc1cnc[nH]1`, which “activity change, negative = inhibition” value is on record?
Answer: inactive: 30.5%

Question: With `CCSC1=NCCN1C(=O)C(C)(C)Oc1ccc(Cl)cc1` as the molecule, how does the Potency read?
Answer: inconclusive [inhibitor, full curve, poor fit]

Question: For `CC(=O)Nc1cccc(NC(=O)CCNC(=O)c2ccccc2)c1`, which activity change, negative = inhibition is on record?
Answer: inactive: 0.767% [at 0.00184 µM]

Question: For `CCOC(=O)c1ccc(NC(=O)NNS(=O)(=O)c2cc(OC)ccc2OC)cc1`, which “activity change, negative = inhibition” value is on record?
Answer: inactive: 41.4%

Question: With `CCOC(=O)C1=C(C)Nc2ccccc2N=C1NC(=O)C(c1ccccc1)c1ccccc1` as the molecule, how does the Potency read?
Answer: inconclusive [inhibitor, single point]

Question: For `CCCCNC(=S)N(C)/N=C/c1sc(N2CCCCC2)nc1-c1cccs1`, which Potency is on record?
Answer: active: 10.4 µM

Question: Which “activity change, negative = inhibition” value does the source give for `CCOC(=O)c1nonc1NC(C)=O` here?
Answer: inactive: -7.63%

Question: With `O=C(CSc1nccn(-c2ccc(Br)cc2)c1=O)NC1CCCC1` as the molecule, how does the Potency read?
Answer: inconclusive [inhibitor, single point]

Question: Which Potency does the source give for `CC(=O)Nc1ccc(NC(=O)Nc2ccc3c(c2)N(C)C(=O)CS3)cc1` here?
Answer: inconclusive [inhibitor, partial curve]

Question: With `CCN(CC)c1ccc(S(=O)(=O)N2CCCCC2)cc1NC(=O)CN1C(=O)NC2(CCCC2)C1=O` as the molecule, how does the Potency read?
Answer: inconclusive [inhibitor, single point]

Question: With `CCC1(C)Cc2c(sc3nc(NC)n(C)c(=O)c23)CO1` (stereo not given) as the molecule, how does the Potency read?
Answer: inconclusive [inhibitor, single point]

Question: Which Potency does the source give for `CCO/C=N/Nc1nc(C(F)(F)F)nc2c1cnn2Cc1ccccc1` here?
Answer: inconclusive [inhibitor, single point]

Question: With `COCCN(CCOC)C(=O)c1cc2sc3ccccc3c2s1` as the molecule, how does the Potency read?
Answer: inconclusive [inhibitor, single point]

Question: Which Potency does the source give for `O=S(=O)(Nc1cc(C(F)(F)F)ccc1N1CCOCC1)c1ccccc1` here?
Answer: inconclusive [inhibitor, single point]

Question: With `Cc1cccc(NC(=S)N/N=C/c2ccc([N+](=O)[O-])s2)c1` as the molecule, how does the Potency read?
Answer: inconclusive [inhibitor, full curve]

Question: Which Potency does the source give for `COc1ccc(CN2CC(=O)N(c3cc(Cl)ccc3C)C2=S)cc1OC` here?
Answer: active: 7.38 µM

Question: Which Potency does the source give for `COc1ccccc1NS(=O)(=O)c1cccc(C(=O)NC2CCN(Cc3ccccc3)CC2)c1` here?
Answer: active: 10.4 µM

Question: With `O=C(CN1CCN(S(=O)(=O)c2ccc(Cl)cc2)CC1)NCC1(N2CCOCC2)CCCCC1` as the molecule, how does the Potency read?
Answer: inconclusive [inhibitor, single point]

Question: Which Potency does the source give for `CC1CCN(CCCNC(=O)c2ccc(Cn3c(=S)[nH]c4ccc(Br)cc4c3=O)cc2)CC1` here?
Answer: active: 13.1 µM

Question: Which Potency does the source give for `CCn1c(SCC(=O)Nc2ccc(NC(=O)c3ccco3)c(OC)c2)nc2ccccc2c1=O` here?
Answer: inconclusive [inhibitor, partial curve, poor fit]

Question: With `Cc1ccc(C(=O)OCc2cn(-c3ccccc3)nn2)cc1` as the molecule, how does the Potency read?
Answer: active: 13.1 µM

Question: For `O=C(O)CCn1c(SCCOc2ccccc2F)nc2ccccc21`, which Potency is on record?
Answer: inconclusive [inhibitor, single point]

Question: With `Cc1ccc(N2CC(C(=O)N3CCC4(CC3)CC(=O)c3ccccc3O4)CC2=O)cc1` (stereo not given) as the molecule, how does the Potency read?
Answer: inconclusive [inhibitor, partial curve, poor fit]

Question: With `Fc1cccc(Cl)c1C1Nc2cccc3cccc(c23)N1` as the molecule, how does the Potency read?
Answer: inconclusive [inhibitor, partial curve, poor fit]

Question: Which Potency does the source give for `COc1cc(C(=O)NCC2CCCO2)cc(Br)c1OCc1ccccc1` (stereo not given) here?
Answer: inconclusive [inhibitor, single point]

Question: With `COCCn1c(O)c(/C=N/NC(=O)CSC(=S)N2CCCC2)c(=O)[nH]c1=S` as the molecule, how does the Potency read?
Answer: inconclusive [inhibitor, single point]

Question: For `CCOC(=O)C1(Cc2cccc(OC)c2)CCN(Cc2cc(OC)ccc2OC)CC1`, which Potency is on record?
Answer: inconclusive [inhibitor, single point]

Question: With `Cc1nc(N)nc(COc2ccccc2)n1` as the molecule, how does the “activity change, negative = inhibition” value read?
Answer: inactive: 42.9%

Question: With `Cc1ccc(NC(=S)N/N=C2\CC(C)(C)Oc3ccc(O)cc32)cc1` as the molecule, how does the Potency read?
Answer: inconclusive [inhibitor, single point]
